Data published in patent US10149887B2, “Peptides and peptidomimetics in combination with t cell activating and/or checkpoint inhibiting agents for cancer treatment” (CanBas Co., Ltd., priority 2015, dated 2018).
Part of at least one peptide drawing is inferred or uncertain, most often the ends. Square brackets hold non-standard residues; d marks the D form. Peptide text beside a SMILES is read from it. Phe(F5) = N[C@@H](Cc1c(F)c(F)c(F)c(F)c1F)C(=O)O; dPhe(F5) = N[C@H](Cc1c(F)c(F)c(F)c(F)c1F)C(=O)O; Cha = N[C@@H](CC1CCCCC1)C(=O)O; dCha = N[C@H](CC1CCCCC1)C(=O)O; Aun = NCCCCCCCCCCC(=O)O

Test system: Jurkat cells
Conditions: dose with 40 μg/ml bleomycine giving detectable G2 checkpoint abrogation, 24 hours

**Q.** `N=C(N)NCCC[C@@H](NC(=O)[C@@H](CCCCN)NC(=O)[C@@H](CCCCN)NC(=O)[C@@H](CCCNC(=N)N)NC(=O)[C@@H](CCCNC(=N)N)NC(=O)[C@@H](CCC(N)=O)NC(=O)[C@@H](CCCNC(=N)N)NC(=O)[C@@H](CCCNC(=N)N)NC(=O)[C@@H](CCCNC(=N)N)NC(=O)[C@@H](CC1CCCCC1)NC(=O)[C@@H](Cc1c(F)c(F)c(F)c(F)c1F)NC(=O)CCCCCCCCCCNC(=O)[C@@H](N)Cc1ccc(O)cc1)C(=O)NCC(=O)N[C@H](Cc1ccc(O)cc1)C(=O)O` [CBP461, (1-Tyr)(1-aminoundecanoic acid)(d-Phe-2,3,4,5,6-F)(d-Cha)(d-Arg)(d-Arg)(d-Arg)(d-Gln)(d-Arg)(d-Arg)(d-Lys)(d-Lys)(d-Arg)(1-Gly)(d-Tyr)] (H-Y[Aun][dPhe(F5)][dCha][dR][dR][dR][dQ][dR][dR][dK][dK][dR]G[dY]-OH; N-terminus and C-terminus assumed) was tested. Which G2 abrogating dose did it give?
**A.** The G2 abrogating dose was no less than 0.39 µM.

**Q.** `N[C@H](Cc1c(F)c(F)c(F)c(F)c1F)C(=O)N[C@H](CC1CCCCC1)C(=O)O` [CBP470, (d-Phe-2,3,4,5,6-F)(d-Cha)] (H-[dPhe(F5)]-[dCha]-OH; N-terminus and C-terminus assumed) was tested. Which G2 abrogating dose did it give?
**A.** The G2 abrogating dose was greater than 50 µM.

**Q.** How did the G2 abrogating dose turn out when `N=C(N)NCCC[C@@H](NC(=O)[C@@H](CCCCN)NC(=O)[C@@H](CCCCN)NC(=O)[C@@H](CCCNC(=N)N)NC(=O)[C@@H](CCCNC(=N)N)NC(=O)[C@@H](CCC(N)=O)NC(=O)[C@@H](CCCNC(=N)N)NC(=O)[C@@H](CCCNC(=N)N)NC(=O)[C@@H](CCCNC(=N)N)NC(=O)[C@@H](CC1CCCCC1)NC(=O)[C@@H](Cc1c(F)c(F)c(F)c(F)c1F)NC(=O)CCCCCCCCCCN)C(=O)NCC(=O)N[C@H](Cc1ccc(O)cc1)C(=O)O` [CBP463, (1-aminoundecanoic acid)(d-Phe-2,3,4,5,6-F)(d-Cha)(d-Arg)(d-Arg)(d-Arg)(d-Gln)(d-Arg)(d-Arg)(d-Lys)(d-Lys)(d-Arg)(1-Gly)(d-Tyr)] (H-[Aun][dPhe(F5)][dCha][dR][dR][dR][dQ][dR][dR][dK][dK][dR]G[dY]-OH; N-terminus and C-terminus assumed) was run?
**A.** The G2 abrogating dose was no less than 0.39 µM.

**Q.** For `N=C(N)NCCC[C@H](NC(=O)CNC(=O)[C@@H](N)Cc1ccc(O)cc1)C(=O)N[C@@H](CCCCN)C(=O)N[C@@H](CCCCN)C(=O)N[C@@H](CCCNC(=N)N)C(=O)N[C@@H](CCCNC(=N)N)C(=O)N[C@@H](CCC(N)=O)C(=O)N[C@@H](CCCNC(=N)N)C(=O)N[C@@H](CCCNC(=N)N)C(=O)N[C@@H](CCCNC(=N)N)C(=O)N[C@@H](CC1CCCCC1)C(=O)N[C@@H](Cc1c(F)c(F)c(F)c(F)c1F)C(=O)N[C@@H](CCCNC(=N)N)C(=O)N[C@@H](CO)C(=O)N1CCC[C@H]1C(=O)N[C@@H](CO)C(=O)N[C@@H](Cc1ccc(O)cc1)C(=O)O` [CBP420, (1-Tyr)(1-Gly)(1-Arg)(1-Lys)(1-Lys)(1-Arg)(1-Arg)(1-Gln)(1-Arg)(1-Arg)(1-Arg)(1-Cha)(1-Phe-2,3,4,5,6-F)(1-Arg)(1-Ser)(1-Pro)(1-Ser)(1-Tyr)], which G2 abrogating dose is on record?
**A.** The G2 abrogating dose was no less than 1.56 µM.

**Q.** `NCCCCCCCCCCC(=O)N[C@H](Cc1c(F)c(F)c(F)c(F)c1F)C(=O)N[C@H](CC1CCCCC1)C(=O)O` [CBP464, (1-aminoundecanoic acid)(d-Phe-2,3,4,5,6-F)(d-Cha)] (H-[Aun]-[dPhe(F5)]-[dCha]-OH; N-terminus and C-terminus assumed) was tested. Which G2 abrogating dose did it give?
**A.** Its G2 abrogating dose is greater than 50 µM.

**Q.** Which G2 abrogating dose does the source give for `N=C(N)NCCC[C@@H](NC(=O)[C@@H](CCCCN)NC(=O)[C@@H](CCCCN)NC(=O)[C@@H](CCCNC(=N)N)NC(=O)[C@@H](CCCNC(=N)N)NC(=O)[C@@H](CCC(N)=O)NC(=O)[C@@H](CCCNC(=N)N)NC(=O)[C@@H](CCCNC(=N)N)NC(=O)[C@@H](CCCNC(=N)N)NC(=O)[C@@H](CC1CCCCC1)NC(=O)[C@@H](Cc1c(F)c(F)c(F)c(F)c1F)NC(=O)CCCCCCCCCCNC(=O)[C@H](Cc1ccc(O)cc1)NC(=O)[C@@H](N)Cc1ccc(O)cc1)C(=O)NCC(=O)N[C@H](Cc1ccc(O)cc1)C(=O)O` [CBP460, (1-Tyr)(1-Tyr)(1-aminoundecanoic acid)(d-Phe-2,3,4,5,6-F)(d-Cha)(d-Arg)(d-Arg)(d-Arg)(d-Gln)(d-Arg)(d-Arg)(d-Lys)(d-Lys)(d-Arg)(1-Gly)(d-Tyr)] (H-YY[Aun][dPhe(F5)][dCha][dR][dR][dR][dQ][dR][dR][dK][dK][dR]G[dY]-OH; N-terminus and C-terminus assumed) here?
**A.** Its G2 abrogating dose is no less than 0.39 µM.

**Q.** `N=C(N)NCCC[C@@H](NC(=O)[C@@H](CCCNC(=N)N)NC(=O)[C@@H](CCC(N)=O)NC(=O)[C@@H](CCCNC(=N)N)NC(=O)[C@@H](CCCNC(=N)N)NC(=O)[C@@H](CCCNC(=N)N)NC(=O)[C@@H](CC1CCCCC1)NC(=O)[C@@H](Cc1c(F)c(F)c(F)c(F)c1F)NC(=O)[C@@H](CO)NC(=O)[C@@H](Cc1c[nH]c2ccccc12)NC(=O)[C@@H](CO)NC(=O)[C@@H](CO)NC(=O)[C@H](N)Cc1ccc(O)cc1)C(=O)O` [CBP481, (d-Tyr)(d-Ser)(d-Ser)(d-Trp)(d-Ser)(d-Phe-2,3,4,5,6-F)(d-Cha)(d-Arg)(d-Arg)(d-Arg)(d-Gln)(d-Arg)(d-Arg)] (H-[dY][dS][dS][dW][dS][dPhe(F5)][dCha][dR][dR][dR][dQ][dR][dR]-OH; N-terminus and C-terminus assumed) was tested. Which G2 abrogating dose did it give?
**A.** Its G2 abrogating dose is greater than 6.25 µM.

**Q.** Which G2 abrogating dose does the source give for `N=C(N)NCCC[C@H](NC(=O)[C@H](CCCNC(=N)N)NC(=O)[C@@H](N)CCCNC(=N)N)C(=O)N[C@@H](CC1CCCCC1)C(=O)N[C@@H](Cc1c(F)c(F)c(F)c(F)c1F)C(=O)N[C@@H](CCCNC(=N)N)C(=O)N[C@@H](CO)C(=O)N1CCC[C@H]1C(=O)N[C@@H](CO)C(=O)N[C@@H](Cc1ccc(O)cc1)C(=O)N[C@@H](Cc1ccc(O)cc1)C(=O)O` [CBP430, (1-Arg)(1-Arg)(1-Arg)(1-Cha)(1-Phe-2,3,4,5,6-F)(1-Arg)(1-Ser)(1-Pro)(1-Ser)(1-Tyr)(1-Tyr)] (H-RRR[Cha][Phe(F5)]RSPSYY-OH; N-terminus and C-terminus assumed) here?
**A.** The G2 abrogating dose was 50 µM.

**Q.** For `N[C@@H](Cc1ccc(O)cc1)C(=O)NCCCCCCCCCCC(=O)N[C@H](Cc1c(F)c(F)c(F)c(F)c1F)C(=O)N[C@H](CC1CCCCC1)C(=O)O` [CBP462, (1-Tyr)(1-aminoundecanoic acid)(d-Phe-2,3,4,5,6-F)(d-Cha)] (H-Y[Aun][dPhe(F5)][dCha]-OH; N-terminus and C-terminus assumed), which G2 abrogating dose is on record?
**A.** Its G2 abrogating dose is greater than 50 µM.

**Q.** How did the G2 abrogating dose turn out when `N=C(N)NCCC[C@H](NC(=O)[C@H](CCCNC(=N)N)NC(=O)[C@H](CCCNC(=N)N)NC(=O)[C@H](CCC(N)=O)NC(=O)[C@H](CCCNC(=N)N)NC(=O)[C@@H](N)CCCNC(=N)N)C(=O)N[C@@H](CC1CCCCC1)C(=O)N[C@@H](Cc1c(F)c(F)c(F)c(F)c1F)C(=O)N[C@@H](CCCNC(=N)N)C(=O)N[C@@H](CO)C(=O)N1CCC[C@H]1C(=O)N[C@@H](CO)C(=O)N[C@@H](Cc1ccc(O)cc1)C(=O)N[C@@H](Cc1ccc(O)cc1)C(=O)O` [CBP431, (1-Arg)(1-Arg)(1-Gln)(1-Arg)(1-Arg)(1-Arg)(1-Cha)(1-Phe-2,3,4,5,6-F)(1-Arg)(1-Ser)(1-Pro)(1-Ser)(1-Tyr)(1-Tyr)] (H-RRQRRR[Cha][Phe(F5)]RSPSYY-OH; N-terminus and C-terminus assumed) was run?
**A.** The G2 abrogating dose was no less than 3.125 µM.
